Test results published in the supplement of paper PMC12217912.
The list shows a part of the results. The full chains were built here from the parent and the listed change. Inactive controls read about 0.05.

B1: TEV protease; numbered along this chain (parent)
chain: MGESLFKGPRDYNPISSSICHLTNESDGHTTSLYGIGFGPFIITNKHLFRRNNGTLVVQSLHGVFKVKDTTTLQQHLVDGRDMIIIRMPKDFPPFPQKLKFREPQREERICLVTTNFQTKSMSSMVSDTSCTFPSGDGIFWKHWIQTKDGQCGSPLVSTRDGFIVGIHSASNFTNTNNYFTSVPKNFMELLTNQEAQQWVSGWRLNADSVLWGGHKVFMVKPEEPFQPVKEATQL

Variants of: B1
Experiment: raw area under fraction-flipped curve 0-4 h after induction (AUC4h, not background-subtracted), DNA-recorder readout of cleavage of the substrate (dimensionless); higher = more cleavage of the substrate by the protease variant
Details: temperature: 34 °C; time window: 0-4 h after rhamnose induction
Procedure: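 In vivo DNA recorder in E. coli TOP10(DE3) ΔrhaA at 34 °C. Each TEVp single-site mutant (parent TEVp 0) is paired with a single-site variant of the 7-mer TEVs (canonical ENLYFQ|S). The substrate sits between flexible linkers in a Bxb1-sfGFP-TEVs-SsrA fusion, so cleavage stabilises Bxb1 and speeds flipping of a recombination array, read by NGS. The value is the raw area under the fraction-flipped curve over 0-4 h after rhamnose induction (AUC4h), with ≥20 reads per time point. It is not background-subtracted; inactive controls average about 0.047.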
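Also: Bxb1 expression induced with 0.2% (w/v) L-rhamnose at OD600 near 0.5, cultures sampled hourly, flipped fraction per protease–substrate barcode pair counted by paired-end Illumina sequencing.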

Which “area with substrate ANLYFQS” value does the source give for K230L here?
Its value is 0.0545.

What about the “area with substrate CNLYFQS” value of the same variant?
The value was 0.0541.

What about the “area with substrate FNLYFQS” value of the same variant?
Its value is 0.0641.

And the “area with substrate GNLYFQS” value?
The value was 0.0608.

And the “area with substrate INLYFQS” value?
The value was 0.0669.

What about the “area with substrate KNLYFQS” value of the same variant?
The value was 0.0586.

And the “area with substrate LNLYFQS” value?
The value was 0.0685.

What about the “area with substrate MNLYFQS” value of the same variant?
The value was 0.0653.

What about the “area with substrate PNLYFQS” value of the same variant?
Its value is 0.0669.

And the “area with substrate TNLYFQS” value?
The value was 0.0708.

What about the “area with substrate WNLYFQS” value of the same variant?
Its value is 0.067.

Which results are given for K230T?
area with substrate ANLYFQS: 0.0731; area with substrate CNLYFQS: 0.0723; area with substrate FNLYFQS: 0.0708; area with substrate GNLYFQS: 0.0556; area with substrate INLYFQS: 0.0704; area with substrate KNLYFQS: 0.0596; area with substrate LNLYFQS: 0.0643; area with substrate MNLYFQS: 0.0612; area with substrate NNLYFQS: 0.0522; area with substrate SNLYFQS: 0.0685; area with substrate TNLYFQS: 0.0617; area with substrate VNLYFQS: 0.057; area with substrate WNLYFQS: 0.0562; area with substrate YNLYFQS: 0.0579

With K230W as the variant, how does the “area with substrate ANLYFQS” value read?
Its value is 0.0618.

What about the “area with substrate CNLYFQS” value of the same variant?
The value was 0.0629.

What about the “area with substrate FNLYFQS” value of the same variant?
Its value is 0.0586.

And the “area with substrate GNLYFQS” value?
Its value is 0.0503.

And the “area with substrate HNLYFQS” value?
Its value is 0.0665.

And the “area with substrate INLYFQS” value?
The value was 0.0569.

What about the “area with substrate KNLYFQS” value of the same variant?
Its value is 0.0171.

What about the “area with substrate NNLYFQS” value of the same variant?
Its value is 0.0694.

And the “area with substrate PNLYFQS” value?
The value was 0.0407.

And the “area with substrate SNLYFQS” value?
Its value is 0.0645.

And the “area with substrate TNLYFQS” value?
Its value is 0.0688.

What about the “area with substrate VNLYFQS” value of the same variant?
The value was 0.0683.

What about the “area with substrate WNLYFQS” value of the same variant?
The value was 0.0903.

And the “area with substrate YNLYFQS” value?
The value was 0.0586.

Which results are given for E223C?
area with substrate ANLYFQS: 0.0632; area with substrate CNLYFQS: 0.104; area with substrate GNLYFQS: 0.0633; area with substrate HNLYFQS: 0.0637; area with substrate INLYFQS: 0.0615; area with substrate LNLYFQS: 0.0463; area with substrate MNLYFQS: 0.0675; area with substrate NNLYFQS: 0.0816; area with substrate PNLYFQS: 0.0782; area with substrate SNLYFQS: 0.0612; area with substrate TNLYFQS: 0.0625; area with substrate VNLYFQS: 0.0671; area with substrate WNLYFQS: 0.0656; area with substrate YNLYFQS: 0.0578

Which “area with substrate ANLYFQS” value does the source give for E223R here?
The value was 0.0465.

What about the “area with substrate CNLYFQS” value of the same variant?
The value was 0.0663.

And the “area with substrate FNLYFQS” value?
The value was 0.0549.

What about the “area with substrate GNLYFQS” value of the same variant?
The value was 0.0693.

What about the “area with substrate HNLYFQS” value of the same variant?
Its value is 0.0572.

What about the “area with substrate INLYFQS” value of the same variant?
The value was 0.0696.

And the “area with substrate KNLYFQS” value?
The value was 0.0626.

And the “area with substrate MNLYFQS” value?
Its value is 0.0705.

What about the “area with substrate NNLYFQS” value of the same variant?
Its value is 0.0636.

And the “area with substrate PNLYFQS” value?
Its value is 0.0612.

What about the “area with substrate QNLYFQS” value of the same variant?
The value was 0.0671.

What about the “area with substrate SNLYFQS” value of the same variant?
Its value is 0.0478.

What about the “area with substrate TNLYFQS” value of the same variant?
Its value is 0.0665.

What about the “area with substrate VNLYFQS” value of the same variant?
The value was 0.0507.

What about the “area with substrate WNLYFQS” value of the same variant?
The value was 0.0637.

With Q234R as the variant, how does the “area with substrate ANLYFQS” value read?
Its value is 0.0079.

What about the “area with substrate CNLYFQS” value of the same variant?
The value was 0.0676.

And the “area with substrate FNLYFQS” value?
Its value is 0.0382.

And the “area with substrate HNLYFQS” value?
The value was 0.0625.

What about the “area with substrate INLYFQS” value of the same variant?
Its value is 0.0657.

What about the “area with substrate KNLYFQS” value of the same variant?
The value was 0.0718.

And the “area with substrate MNLYFQS” value?
The value was 0.0707.

And the “area with substrate PNLYFQS” value?
The value was 0.0578.

Which “area with substrate ANLYFQS” value does the source give for Q234H here?
The value was 0.0653.

What about the “area with substrate CNLYFQS” value of the same variant?
The value was 0.0774.

What about the “area with substrate FNLYFQS” value of the same variant?
Its value is 0.0491.

And the “area with substrate NNLYFQS” value?
Its value is 0.0672.

And the “area with substrate PNLYFQS” value?
The value was 0.0805.

What about the “area with substrate TNLYFQS” value of the same variant?
The value was 0.0853.

What about the “area with substrate YNLYFQS” value of the same variant?
Its value is 0.0695.

Which “area with substrate ANLYFQS” value does the source give for F226K here?
The value was 0.0828.

What about the “area with substrate CNLYFQS” value of the same variant?
The value was 0.0842.

What about the “area with substrate FNLYFQS” value of the same variant?
Its value is 0.0763.

And the “area with substrate HNLYFQS” value?
Its value is 0.0516.

What about the “area with substrate INLYFQS” value of the same variant?
Its value is 0.0857.

And the “area with substrate KNLYFQS” value?
Its value is 0.0689.

What about the “area with substrate MNLYFQS” value of the same variant?
Its value is 0.0641.

What about the “area with substrate PNLYFQS” value of the same variant?
The value was 0.0688.

What about the “area with substrate TNLYFQS” value of the same variant?
The value was 0.0613.

And the “area with substrate WNLYFQS” value?
The value was 0.0649.

What about the “area with substrate YNLYFQS” value of the same variant?
The value was 0.063.

For F226A, which “area with substrate ANLYFQS” value is on record?
The value was 0.0619.

What about the “area with substrate CNLYFQS” value of the same variant?
The value was 0.0697.

What about the “area with substrate HNLYFQS” value of the same variant?
Its value is 0.0673.

And the “area with substrate LNLYFQS” value?
Its value is 0.0425.

What about the “area with substrate MNLYFQS” value of the same variant?
The value was 0.0727.

And the “area with substrate PNLYFQS” value?
The value was 0.067.

For G136M, which “area with substrate CNLYFQS” value is on record?
Its value is 0.0573.

What about the “area with substrate FNLYFQS” value of the same variant?
Its value is 0.0625.

And the “area with substrate HNLYFQS” value?
Its value is 0.0798.

What about the “area with substrate KNLYFQS” value of the same variant?
The value was 0.0595.

And the “area with substrate MNLYFQS” value?
Its value is 0.0847.

What about the “area with substrate NNLYFQS” value of the same variant?
The value was 0.0391.

And the “area with substrate PNLYFQS” value?
Its value is 0.0668.

For P222Y, which “area with substrate ANLYFQS” value is on record?
Its value is 0.0426.

And the “area with substrate CNLYFQS” value?
Its value is 0.0573.

And the “area with substrate FNLYFQS” value?
The value was 0.0808.

And the “area with substrate GNLYFQS” value?
The value was 0.0551.

And the “area with substrate HNLYFQS” value?
Its value is 0.0665.

And the “area with substrate INLYFQS” value?
Its value is 0.0703.

What about the “area with substrate LNLYFQS” value of the same variant?
The value was 0.0604.

What about the “area with substrate NNLYFQS” value of the same variant?
Its value is 0.0523.

And the “area with substrate PNLYFQS” value?
Its value is 0.0571.

And the “area with substrate QNLYFQS” value?
Its value is 0.0638.

And the “area with substrate SNLYFQS” value?
The value was 0.0712.

And the “area with substrate TNLYFQS” value?
The value was 0.0699.

What about the “area with substrate VNLYFQS” value of the same variant?
The value was 0.077.

And the “area with substrate WNLYFQS” value?
Its value is 0.0415.

What does the source list for P222Q?
area with substrate ANLYFQS: 0.0551; area with substrate CNLYFQS: 0.0755; area with substrate FNLYFQS: 0.066; area with substrate GNLYFQS: 0.0867; area with substrate HNLYFQS: 0.0686; area with substrate INLYFQS: 0.069; area with substrate KNLYFQS: 0.0754; area with substrate LNLYFQS: 0.0585; area with substrate MNLYFQS: 0.0649; area with substrate NNLYFQS: 0.0587; area with substrate PNLYFQS: 0.0559; area with substrate QNLYFQS: 0.0566; area with substrate SNLYFQS: 0.0627; area with substrate TNLYFQS: 0.0855; area with substrate WNLYFQS: 0.0602

With M88I as the variant, how does the “area with substrate CNLYFQS” value read?
The value was 0.0729.

What about the “area with substrate FNLYFQS” value of the same variant?
Its value is 0.057.

And the “area with substrate GNLYFQS” value?
Its value is 0.0663.

And the “area with substrate HNLYFQS” value?
Its value is 0.0741.

And the “area with substrate KNLYFQS” value?
The value was 0.0755.

And the “area with substrate LNLYFQS” value?
The value was 0.0556.

What about the “area with substrate NNLYFQS” value of the same variant?
The value was 0.0694.

What about the “area with substrate QNLYFQS” value of the same variant?
Its value is 0.056.

What about the “area with substrate SNLYFQS” value of the same variant?
Its value is 0.0654.

What about the “area with substrate TNLYFQS” value of the same variant?
Its value is 0.062.

With Q227T as the variant, how does the “area with substrate ANLYFQS” value read?
Its value is 0.058.

And the “area with substrate CNLYFQS” value?
Its value is 0.0766.

What about the “area with substrate FNLYFQS” value of the same variant?
Its value is 0.0717.

What about the “area with substrate GNLYFQS” value of the same variant?
Its value is 0.0723.

And the “area with substrate HNLYFQS” value?
The value was 0.0561.

What about the “area with substrate SNLYFQS” value of the same variant?
Its value is 0.0666.

What about the “area with substrate WNLYFQS” value of the same variant?
Its value is 0.0627.

What does the source list for G8R?
area with substrate GNLYFQS: 0.0716; area with substrate KNLYFQS: 0.0601; area with substrate LNLYFQS: 0.0561; area with substrate SNLYFQS: 0.0699; area with substrate TNLYFQS: 0.0775

For G8V, which “area with substrate CNLYFQS” value is on record?
Its value is 0.0646.

And the “area with substrate NNLYFQS” value?
The value was 0.0659.

What about the “area with substrate SNLYFQS” value of the same variant?
The value was 0.0582.

And the “area with substrate WNLYFQS” value?
The value was 0.0729.

Which results are given for N24L?
area with substrate CNLYFQS: 0.0741; area with substrate FNLYFQS: 0.0488; area with substrate GNLYFQS: 0.0686; area with substrate HNLYFQS: 0.0859; area with substrate KNLYFQS: 0.0753; area with substrate LNLYFQS: 0.0677; area with substrate MNLYFQS: 0.0945; area with substrate NNLYFQS: 0.0616; area with substrate PNLYFQS: 0.0724; area with substrate QNLYFQS: 0.0784; area with substrate RNLYFQS: 0.0955; area with substrate TNLYFQS: 0.0706; area with substrate WNLYFQS: 0.0599; area with substrate YNLYFQS: 0.0663
